The source of these data is the supplement of paper PMC11417369.

Some of the results follow.

This experiment has as its system PfAP2-HC AP2 domain (GST-tagged). Nature of the experiment: gcPBM binding intensity (ln(normalized median fluorescence intensity)); higher = stronger DNA binding. The method, boiled down:
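Plasmodium falciparum DNA-binding domains carrying a GST tag were expressed in E. coli and applied for 1 h, at about 25 μg on average, to an Agilent 4 × 180k array. The array held primer-extended double-stranded 36-bp intergenic genomic probes together with negative controls, and binding took place in 1× PBS with 1% milk, 0.2 mg/ml BSA, 0.5% salmon testes DNA and 0.03% Triton X-100. An Alexa488 anti-GST antibody detected bound protein, and the array was scanned at 488 nm. Binding intensity is taken as the highest Masliner-normalised natural-log median intensity across replicate spots of either probe orientation.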
Turning to “TATAAAACAAATATATGTACATATCATAGTATAATA [XGTACX_site2965]”, the “gcPBM binding intensity (ln)” value is 9.75.
With “TAATTAAAGTTATCTACACACCTTTATAGATATATA [CACACA_site7778]” the figure was 9.63; with “ATTATGAATTTAAGACGTACAAAAAATTTTTATTCA [XGTACX_site5682]”, 9.53.
With “ACAAGTATTCCTTTTGCACACCTTTCTGCACCTTAT [CACACA_site3873]” the figure was 9.97; with AAATACTTATTCGTGGTGCAACAATTTTAAAAATTA, 9.49.
With “ATTAAAATAATACGTACACACATGTATAATACATAT [CACACA_site1005]” the figure was 9.92; with “AATAATATATTATATGCATGTGTATAATTTGATATA [TGCATGCA_site1058]”, 9.57; with “TTTGGTTATTTGACCTGTACACATTTAATTATTTTT [XGTACX_site5170]”, 9.76.
Consider “CAAAGGAAATGGTGTACACAATTTTTCCTTTTTCGT [CACACA_site4800]”, for which the “gcPBM binding intensity (ln)” value turned out to be 9.6.
The same measure for “AGCAAGACGGGGTGCACACAAACTAATATGCCGAAT [CACACA_site159]”: 9.89; for “TATTACATAATATATGTACACACGCAAATACTTATA [CACACA_site7994]”: 9.77; for “TAACAACGATACAATTGTACAAATTATATATATATA [XGTACX_site4687]”: 10.1.
With “CAAAAAAAGTTATACACACACACACGGATATAAATA [CACACA_site6619]” the figure was 10.7.
On to GTATTCATTCCTTGAGTGCAATTGCAATAAATAAAA, for which the “gcPBM binding intensity (ln)” value was 9.68.
With “CATATTAAGATGTGTACACATTTTTATTTTTTTTTT [CACACA_site4425]” the figure was 9.78; with “GAAAAGTATAAAAAACGTACAAGTTTTATTTTCACA [XGTACX_site4604]”, 9.58.
Regarding “CCCCTATAAATAGGGTGTACTAATAAATATTTTTAA [XGTACX_site1244]”, the “gcPBM binding intensity (ln)” value was found to be 9.56.
With “ACGGGCGACACATAAGTGCGCAAAAAAAAAAAAATA [GTGCAC_site9688]” the figure was 9.48; with “TAAAATAAAAAGTTTACACACATATATAACTTTAAT [CACACA_site6456]”, 9.76.
With “AAAATACAGAAACACACACACACACCCATATATATA [CACACA_site3559]” the figure was 10.7.
With “TTTTATAAAACATGTAGTACATGAAAAAAAAAATTT [XGTACX_site1626]” the figure was 9.55; with “TTATTTTTTGTATGAACACACAACTTAATTATGATG [CACACA_site2448]”, 9.98; with “ATGTTTCTATAGATTTGTACATATTTCATATGAATA [XGTACX_site1053]”, 9.7.
Consider “TCTTTTCTTTTGTGTGTGCACATATAAGCATGAAAC [GTGCAC_site9910]”, for which the “gcPBM binding intensity (ln)” value came to 9.96.
“TTTTACAAATATTTCTGTACACATTCTCATATAATT [XGTACX_site1974]”: the “gcPBM binding intensity (ln)” value was found to be 9.83.
Regarding “TTTTTTAATTAATTACCTTTGAATGTGTATTAGGAC [GTGCAC_negctrl_site651]”, the “gcPBM binding intensity (ln)” value came to 9.37.
“AAATGACGAAATAAAATCATAAATTAAAATAAATAA [CACACA_negctrl_site655]”: the “gcPBM binding intensity (ln)” value turned out to be 9.65.
With “ATAGCATTTCACAAATGTACATAAAAAAATAAAAAT [XGTACX_site402]” the figure was 9.73.
As to “TAAAACAAAATGGTAACACACACATATATATATATA [CACACA_site8590]”, the “gcPBM binding intensity (ln)” value worked out at 10.3.
The same measure for “AAATGGAAATTAATATGTACATATTTATAAGTATGA [XGTACX_site1774]”: 9.72; for “TCCTATCATTTATATTTTACTACATAATATTGATAA [GTGCAC_negctrl_site286]”: 9.46.
The same measure for “ACATCCTATAAATAGAGTACGTAAATTATAATACAC [XGTACX_site5338]”: 9.69; for “TATATATATATATATTGTACAAAGATTAATATATAA [XGTACX_site8433]”: 9.69; for “TATTTTAATAAGAATAAATGAAATGAAATGAAATAT [CACACA_negctrl_site823]”: 9.62.
With “ACTTAATTTTTTTATTGTACATGTAAATGAGGGAAA [XGTACX_site6305]”, the “gcPBM binding intensity (ln)” value came to 9.52.
With “CTTCTGGACAGGAATGCACACATTTTTTTTTCTTTT [CACACA_site1807]”, the “gcPBM binding intensity (ln)” value came to 10.
For “GTTTTTATCATATCATGTACGTATTTTATTTTTTTT [XGTACX_site8643]”, the “gcPBM binding intensity (ln)” value worked out at 9.97.
With “ATCAAAGATAAATTTACACACATATAAATATAAATA [CACACA_site7409]” the figure was 9.91.
On to “ATGAATTTTTCTCTACAAAAGGATATAATAAAAATA [XGTACX_negctrl_site461]”, for which the “gcPBM binding intensity (ln)” value came out at 9.37.
The same measure for “TAGTGTGCCAAATTAGCACACACATATATACATGAA [CACACA_site8910]”: 10.1; for “TTTTCTAATTAATATTGTACATAAATGTATATATAT [XGTACX_site4749]”: 9.52.
With “ATATTTTTTAGGGTCACACATACTTATTATATAAAT [CACACA_site4926]” the figure was 9.73; with “AATATTTAACACCTTATACACACTTTCTTCCTTTTT [CACACA_site785]”, 10.1; with “CATATATACTCATACACACACACACCGACACAGACA [CACACA_site5026]”, 10.3.
The same measure for “ATGATATGGATAAATACACACAATATAATAATGTCT [CACACA_site1433]”: 9.89.
Consider “TATGATGAGATAACAAAAGTTGTACTTTTTTTTTTT [CACACA_negctrl_site1172]”, for which the “gcPBM binding intensity (ln)” value stood at 9.35.
For “AGAAAAAAAATGTATACACACAAATATAAAGAAGGA [CACACA_site3806]”, the “gcPBM binding intensity (ln)” value is 9.96.
Consider “AAAATTAATAAATGAGAAAAAAGGATGAATAATGAG [CACACA_negctrl_site1614]”, for which the “gcPBM binding intensity (ln)” value was 9.79.
Turning to “TTTATTAATTAAACCATACACACATAATTTTTTTAT [CACACA_site842]”, the “gcPBM binding intensity (ln)” value amounted to 9.92.
“AAACGTGCGTATATGTGTACGCATATATATATATAT [XGTACX_site5252]”: the “gcPBM binding intensity (ln)” value was 9.73.
With “AAAGCACGCAAGAATACACACAAATATTATAAAAAA [CACACA_site6206]” the figure was 10.1; with “ATCCCAGTAATATATAGTACATAACTATAAGAGAAT [XGTACX_site6909]”, 9.74; with “TAAAAAATTATAAAATGTACATAAAAAAAAAAAAAA [XGTACX_site3376]”, 9.63.
With “CTGAAGAAACTACAACGTACAAAATATGTATATATT [XGTACX_site3779]”, the “gcPBM binding intensity (ln)” value is 9.63.
The same measure for “AGGAAAACAAAAGATGCATGCTAATTTTCCTCGCGT [TGCATGCA_site627]”: 9.53; for “ATGGAAATAAAAAAAAAAAAAAAAAAAAATATATAT [GTGCAC_negctrl_site67]”: 9.52.
With “TAGCCCACATTTAATGGTACAGTGAGTATATATATG [XGTACX_site8044]” the figure was 9.57; with “TACATAAAATACCATGCATGCTAGTAAAAAAAAAAA [TGCATGCA_site650]”, 9.66.
With “TAATATATTTATAGAGCATGCAACGTAATATTATTA [TGCATGCA_site863]”, the “gcPBM binding intensity (ln)” value was 9.67.
The same measure for “CAAATAGCTAGCTGTGCACACAAACATATTTTCCAA [CACACA_site879]”: 10.
For “CACAAACAAAGACACACACACACACGCACAAAAATG [CACACA_site7193]”, the “gcPBM binding intensity (ln)” value came to 10.7.
With “AAAATGCATTTGATGTGTACGCATTATAAAGAACAA [XGTACX_site4203]” the figure was 9.79; with “AATATATAAATTGACACACACATATATACATATATA [CACACA_site1213]”, 10.1.
As to “GATATGTTTTCCTAGGTTCATGATGATAGGTAGTTT [XGTACX_negctrl_site217]”, the “gcPBM binding intensity (ln)” value stood at 9.83.
Consider “TTTGTGGTTACATGTGCACACACTTATTTCGTTCTT [CACACA_site1435]”, for which the “gcPBM binding intensity (ln)” value was determined as 10.7.
The same measure for “TATATTTGTTAATTTTGTACGTATGGATATACATAA [XGTACX_site5100]”: 9.55.
The same measure for “TATAAATATAGAATTACACACAATGTTCTATAAATA [CACACA_site7508]”: 9.7; for “AAGGTGGTTATTAAATGTACACAGACATATACAAAA [XGTACX_site3007]”: 9.76; for “ATATGCTACATTATATGTACACACATATACATATAT [XGTACX_site1656]”: 10.4.
With “TAATATAAAGAAATATCAATAATTTGGGCAAATGCC [GTGCAC_negctrl_site621]” the figure was 9.49.
For “AGGTAGAAAAAAGACACACACATTATATATATATAT [CACACA_site4367]”, the “gcPBM binding intensity (ln)” value was found to be 10.2.
With “TTTTATGCATGTGAAGTGCAAAATAAAAAATAAAAT [GTGCAC_site9612]” the figure was 9.56.
In the case of “TTCATTCATTTTATTACACACAAAAAAAAAAAAAAA [CACACA_site3680]”, the “gcPBM binding intensity (ln)” value was determined as 9.28.
Consider “AGTTATTTTATAGAATATGAATAATTTTACTTTTCA [XGTACX_negctrl_site403]”, for which the “gcPBM binding intensity (ln)” value was determined as 9.47.
With “AAAAAAAAAGGTACTACACACTATTCTCAATAGAAA [CACACA_site6193]” the figure was 9.74; with “AATTTCATTTTACTTATCTAATATTTATAATCTTTT [CACACA_negctrl_site636]”, 9.67.
As to “AATAATATACCTCTTGTGCACATATTAAAAGTTCAT [GTGCAC_site9536]”, the “gcPBM binding intensity (ln)” value was found to be 9.75.
The same measure for “TTCGTCTTTTTTCTCACACACCCTTTTTATTAAAAG [CACACA_site7225]”: 10.2.
The same measure for “AAAGAATACATATATTGTACATATATATATACCGTT [XGTACX_site6250]”: 9.98.
AGAATTAAAATAAAGGTGCATTTTTTTGTTTCATGT: the “gcPBM binding intensity (ln)” value came to 9.61.
In the case of “ATAATACAAAACACAAGTACATAAATTAAAAAGATG [XGTACX_site7839]”, the “gcPBM binding intensity (ln)” value amounted to 9.91.
As to “ATATATATTAAAAATAGTACATATAATAAAAATCAT [XGTACX_site4265]”, the “gcPBM binding intensity (ln)” value was found to be 9.96.
For the sequence “TACATATTCCTACAAATGTATAAATTATAAATATTA [XGTACX_negctrl_site30]”, the “gcPBM binding intensity (ln)” value came out at 9.43.
The same measure for “AACGATATAGGTACTACACACATTATGTCATCCTAT [CACACA_site7205]”: 9.93; for “TGTATATGTTTAATTAGTACATATAAAGTAACAATA [XGTACX_site1207]”: 9.7; for “ATATGAAATATATGTAGTACACATAATTAAAAGTAG [XGTACX_site6490]”: 10.1.
For the sequence “AATTTTTATATAATTTAACACACATTTCATATAAAA [CACACA_site9018]”, the “gcPBM binding intensity (ln)” value stood at 9.54.
In the case of “TTAGGATATTTATTTCGTACATATATTTTTAATTGT [XGTACX_site582]”, the “gcPBM binding intensity (ln)” value is 9.7.
“TATAAATTATTTATCACACATAAAACAAAAATAAGA [CACACA_site5493]”: the “gcPBM binding intensity (ln)” value came out at 9.75.
